Data: article PMC3077382, “14-3-3 Proteins Regulate Exonuclease 1–Dependent Processing of Stalled Replication Forks” (PLoS Genetics, 2011)
These are yes or no findings as the source states them, for the method shown. Binding seen in cells or lysates may run through a third protein. Some binding calls cover weakened binding; strength is not graded here. Tags and fused reporters may be left off the sequences shown.

Chains of the proteins cited; added tags and fusions are not shown. Lines headed by an entry give the natural chain unless they say otherwise; changes in a name come on top. A line that says so, or that is headed by a name, gives the form on record, which may keep a tag or linker.
UniProt P29311: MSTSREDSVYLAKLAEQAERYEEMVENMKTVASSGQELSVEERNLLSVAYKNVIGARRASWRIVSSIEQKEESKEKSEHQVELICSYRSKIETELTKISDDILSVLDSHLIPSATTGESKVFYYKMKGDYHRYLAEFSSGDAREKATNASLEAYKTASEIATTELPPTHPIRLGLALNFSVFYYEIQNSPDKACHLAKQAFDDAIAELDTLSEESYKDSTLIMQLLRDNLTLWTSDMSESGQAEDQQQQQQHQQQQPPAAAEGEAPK
Bmh1-280-HA (P29311, form named): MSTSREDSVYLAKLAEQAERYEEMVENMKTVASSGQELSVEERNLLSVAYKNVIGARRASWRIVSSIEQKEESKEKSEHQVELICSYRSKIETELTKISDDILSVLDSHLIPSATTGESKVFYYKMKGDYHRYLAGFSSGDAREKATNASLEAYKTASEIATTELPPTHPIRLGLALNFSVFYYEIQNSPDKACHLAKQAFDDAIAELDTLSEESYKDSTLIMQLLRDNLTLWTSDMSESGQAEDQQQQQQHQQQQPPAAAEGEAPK
UniProt P34730: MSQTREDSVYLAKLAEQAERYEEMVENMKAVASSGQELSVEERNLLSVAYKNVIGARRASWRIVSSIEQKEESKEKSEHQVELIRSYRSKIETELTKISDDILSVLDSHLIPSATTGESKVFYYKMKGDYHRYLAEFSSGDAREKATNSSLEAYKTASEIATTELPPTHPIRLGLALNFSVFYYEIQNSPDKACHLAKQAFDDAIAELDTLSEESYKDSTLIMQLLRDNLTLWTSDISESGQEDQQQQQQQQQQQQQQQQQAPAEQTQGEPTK

How the values were obtained:
[1] = target: Bmh1-280-HA (S. cerevisiae) (UniProt P29311); assay: co-IP; yeast cultures not treated with HU; 10 mg whole cell extract immunoprecipitated with monoclonal HA antibody; Exo1-Myc detected by blot
Bmh2-HA (S. cerevisiae) [2] = target: Bmh2-HA (S. cerevisiae) (UniProt P34730); assay: as above
Bmh1-HA (S. cerevisiae) [3] = target: Bmh1-HA (S. cerevisiae) (UniProt P29311); assay: as above
[4] = target: Bmh1-280-HA (S. cerevisiae) (UniProt P29311); assay: co-IP; yeast cultures treated for 90 min with 150 mM HU; 10 mg whole cell extract immunoprecipitated with monoclonal HA antibody; Exo1-Myc detected by blot
Bmh2-HA (S. cerevisiae) [5] = target: Bmh2-HA (S. cerevisiae) (UniProt P34730); assay: as above
Bmh1-HA (S. cerevisiae) [6] = target: Bmh1-HA (S. cerevisiae) (UniProt P29311); assay: as above

B1: Exo1-Myc (protein, UniProt P39875 1-702)
chain: MGIQGLLPQLKPIQNPVSLRRYEGEVLAIDGYAWLHRAACSCAYELAMGKPTDKYLQFFIKRFSLLKTFKVEPYLVFDGDAIPVKKSTESKRRDKRKENKAIAERLWACGEKKNAMDYFQKCVDITPEMAKCIICYCKLNGIRYIVAPFEADSQMVYLEQKNIVQGIISEDSDLLVFGCRRLITKLNDYGECLEICRDNFIKLPKKFPLGSLTNEEIITMVCLSGCDYTNGIPKVGLITAMKLVRRFNTIERIILSIQREGKLMIPDTYINEYEAAVLAFQFQRVFCPIRKKIVSLNEIPLYLKDTESKRKRLYACIGFVIHRETQKKQIVHFDDDIDHHLHLKIAQGDLNPYDFHQPLANREHKLQLASKSNIEFGKTNTTNSEAKVKPIESFFQKMTKLDHNPKVANNIHSLRQAEDKLTMAIKRRKLSNANVVQETLKDTRSKFFNKPSMTVVENFKEKGDSIQDFKEDTNSQSLEEPVSESQLSTQIPSSFITTNLEDDDNLSEEVSEVVSDIEEDRKNSEGKTIGNEIYNTDDDGDGDTSEDYSETAESRVPTSSTTSFPGSSQRSISGCTKVLQKFRYSSSFSGVNANRQPLFPRHVNQKSRGMVYVNQNRDDDCDDNDGKNQITQRPSLRKSLIGARSQRIVIDMKSVDERKSFNSSPILHEESKKRDIETTKSSQARPAVRSISLLSQFVYKGK
- binding [1]: no binding
- binding (Bmh2-HA (S. cerevisiae) [2]): no binding (condition: cells not treated with HU)
- binding (Bmh1-HA (S. cerevisiae) [3]): no binding (condition: cells not treated with HU)
- binding [4]: no binding
- binding (Bmh2-HA (S. cerevisiae) [5]): binds
- binding (Bmh1-HA (S. cerevisiae) [6]): binds
